Here are results for 72 compounds from PubChem BioAssay AID488969 (Vanderbilt High Throughput Screening Facility, 2010).

The structures appear in SMILES notation. In all, about 110,000 compounds were measured (“z-score”: median about -0.1, highest 2% from about 2 on). The list shows a part of the results. Calls of active or inactive are those of the source.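 Rule for the calls: active = z-score in the third read window above 3 or below -3; inactive = the rest.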

The target in the assay is Metabotropic glutamate receptor 8 (Rattus norvegicus) (UniProt P70579). In words: rat mGluR8 modulators via GIRK flux, primary screen, cell-based, thallium flux, HTS (AID 488969). The settings on record: HEK293 rat mGluR8, GIRK (G protein-gated inwardly rectifying potassium channel) thallium flux, FluoZin2; at 10 µM; stronger effect = higher value; submaximal glutamate (EC20) added with thallium.
UniProt P70579, sequence (P70579 whole entry, looked up): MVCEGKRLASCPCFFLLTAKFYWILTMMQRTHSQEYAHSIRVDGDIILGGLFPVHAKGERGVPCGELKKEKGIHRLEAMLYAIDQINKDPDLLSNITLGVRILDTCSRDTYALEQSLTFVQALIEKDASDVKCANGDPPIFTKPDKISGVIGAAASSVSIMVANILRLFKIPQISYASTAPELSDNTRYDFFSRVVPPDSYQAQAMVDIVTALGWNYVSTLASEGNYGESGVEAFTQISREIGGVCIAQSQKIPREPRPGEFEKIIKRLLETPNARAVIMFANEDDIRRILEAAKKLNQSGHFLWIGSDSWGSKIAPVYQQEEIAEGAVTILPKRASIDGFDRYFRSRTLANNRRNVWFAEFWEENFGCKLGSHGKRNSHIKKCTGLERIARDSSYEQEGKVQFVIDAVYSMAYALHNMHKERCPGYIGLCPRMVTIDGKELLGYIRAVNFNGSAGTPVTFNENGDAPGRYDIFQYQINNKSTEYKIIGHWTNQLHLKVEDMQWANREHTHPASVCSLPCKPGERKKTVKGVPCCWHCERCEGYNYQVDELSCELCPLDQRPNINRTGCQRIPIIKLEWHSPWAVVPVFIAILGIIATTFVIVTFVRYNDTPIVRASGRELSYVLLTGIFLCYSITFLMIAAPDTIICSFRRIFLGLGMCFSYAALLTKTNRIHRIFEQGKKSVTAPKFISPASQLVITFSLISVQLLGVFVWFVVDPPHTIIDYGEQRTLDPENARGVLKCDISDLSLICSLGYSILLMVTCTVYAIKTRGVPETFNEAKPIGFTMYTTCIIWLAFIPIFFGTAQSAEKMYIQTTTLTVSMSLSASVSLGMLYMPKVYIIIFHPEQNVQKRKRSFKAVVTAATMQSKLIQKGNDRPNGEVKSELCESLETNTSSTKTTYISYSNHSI
Take `Cc1c(Cl)cccc1NC(=O)CCCN1C(=O)CCC1=O`: the z-score worked out at 0.5.

`COc1ccc(NC(=O)Cc2ccccc2)cc1` returned a z-score of 0.2.

Consider `O=C(c1ccco1)N1CCN(c2c(-c3ccccc3)c3cc(Cl)ccc3[nH]c2=O)CC1`, for which the z-score is -0.0972.

For the compound `COc1ccc(-n2c(C)nc3cc(C(=O)NCc4ccco4)ccc32)cc1`, the z-score was 2.54.

`COc1ccc(C2C(Oc3ccccc3)C(=O)N2c2cc(C)ccc2C)cc1OC` (configuration not stated): the z-score is -0.22.

`COC(=O)C1CC(O)CN1C(=O)c1ccco1` (configuration not stated) displayed a z-score of 0.107.

As to `Cc1ccc(C)c(N(CC(=O)N(C)C)S(C)(=O)=O)c1`, the z-score was -0.161.

With `C/C(=N\NC(=S)NCCc1ccccc1)c1cccs1`, the z-score was active: 3.65.

For `O=C1[C@@H]2[C@H](C(=O)N1Cc1ccco1)[C@H]1C=C[C@@H]2C1`, the z-score is -0.0939.

As to `C=C(C)c1cccc(C(C)(C)NC(=O)Nc2ccc(C)cn2)c1`, the z-score is -0.34.

Compound `CCOc1ccc(S(=O)(=O)N(CC(=O)NC2CCCCC2C)Cc2ccco2)cc1` (configuration not stated) gave a z-score of 0.273.

`CCNC(=O)C/C(C)=N/NC(=O)C1CCCCC1`: the z-score is -0.417.

Consider `COc1cccc(-c2cc(C(=O)NCc3ccco3)no2)c1`, for which the z-score was -0.142.

`O=C(NCCC1=CCCCC1)C1CCN(S(=O)(=O)c2cccc3cccnc23)CC1` returned a z-score of 0.278.

Compound `CCOC(=O)N1CCN(C(=O)c2cccc(OC)c2OC)CC1` had a z-score of 0.308.

With `COc1cccc(C(=O)CSc2nnc(-c3ccco3)n2CC2CCCO2)c1` (configuration not stated), the z-score is -0.367.

Consider `O=C(Oc1cc(=O)oc2ccccc12)c1ccco1`, for which the z-score was -1.36.

The compound `COc1ccc(-c2cc(C(=O)OCC(=O)Nc3ccc4c(c3)OCO4)c3ccccc3n2)cc1` came in with a z-score of 0.618.

For the compound `Cn1c(=O)n(Cc2ccc(F)cc2)c(=O)c2c1nc1n2CCCN1Cc1ccccc1`, the z-score was -0.855.

Take `CCC(=O)Nc1ccc2c(c1)nc(CCN1CCN(C)CC1)n2C`: the z-score stood at 0.884.

On to `CC1=C(OC(=O)C(C)(C)C)C(C)(C)C(c2ccccc2)OC1=O` (configuration not stated), for which the z-score was -0.318.

Turning to `Cc1nc2ccc3nc(NC(=O)c4ccco4)sc3c2s1`, the z-score stood at 0.0103.

`FC(F)(F)c1cc(-c2ccco2)nc(NCCc2ccccc2)n1`: the z-score is -0.141.

In turn, `NC(=O)NC(=O)Nc1ccccc1Cl` gave a z-score of 0.0822.

As for `Nc1c(S(=O)(=O)c2cccs2)c2nc3ccccc3nc2n1CC1CCCO1` (configuration not stated), the z-score was -0.113.

With `CCCN1C(=O)SC(CC(=O)Nc2ccc(Br)cc2)C1=O` (configuration not stated), the z-score was -0.212.

In the case of `COc1ccc(-c2cn3c(C)c(C(=O)N4CCCc5ccccc54)sc3n2)cc1`, the z-score was -0.413.

Take `COc1ccc(-n2c(SCC(=O)N3CCCCC3C)nnc2-c2cccnc2)cc1` (configuration not stated): the z-score was determined as 0.892.

For `c1ccc2cc(OCc3nc4ccccc4[nH]3)ccc2c1`, the z-score is -0.188.

For the compound `CCCCN1C(=O)C2C(C(=O)Nc3cccc(OC)c3)C3C=CC2(O3)C1C(=O)NC1CCCCC1C` (configuration not stated), the z-score was -0.922.

Regarding `CCCC(=O)NC(=S)Nc1ccccc1C(F)(F)F`, the z-score turned out to be 0.25.

As for `COc1ccc(Cl)cc1NC(=O)C(C)Sc1nncn1C` (configuration not stated), the z-score was -0.0847.

In the case of `Cc1ccccc1NC(=O)CSc1nc(N)c(C#N)c(-c2cccs2)c1C#N`, the z-score was -1.39.

In turn, `CCOCCCNC(=O)CCC(=O)NNc1nc2ccccc2c2nc(-c3ccccc3)nn12` gave a z-score of 0.25.

The compound `C1CCc2nnc(-c3nnc4n3CCCCC4)n2CC1` yielded a z-score of 1.92.

The compound `Cc1[nH]n(-c2ccccc2)c(=O)c1/C=N/n1c(C)nc2ccccc2c1=O` yielded a z-score of 0.557.

Take `Cc1ccc(S(=O)(=O)c2cc(C#N)c(=O)[nH]c2N)cc1`: the z-score was -0.153.

Compound `COc1ccc(C(=O)COC(=O)[C@H](C)Nc2ccc(C(F)(F)F)cc2[N+](=O)[O-])cc1` had a z-score of 0.00425.

For `Cc1ccc(C)c(NC(=O)c2cc3c([nH]c4ccccc43)c(C)n2)c1`, the z-score was -0.144.

With `Cc1cc(=O)oc(C)c1C(=O)NCCc1ccc(F)cc1`, the z-score is -0.0519.

`COc1ccccc1CC(=O)Nc1ccccc1O` returned a z-score of 0.258.

Regarding `COC(=O)c1cc(Cl)c(NC(=O)/C=C/c2ccc(OC)c(OC)c2)cc1OC`, the z-score was -0.134.

`CCCCC(CC(O)COCC(C)C)C(=O)NNC(=S)Nc1ccccc1` (configuration not stated) gave a z-score of 0.0716.

Take `CC(=O)C1=C(O)C(=O)N(c2cccc(C(=O)O)c2)C1c1ccc(F)cc1` (configuration not stated): the z-score is -0.153.

On to `Cc1ccc(C(=O)/C=C/Nc2ccccc2C(N)=O)cc1`, for which the z-score was determined as 0.189.

For `COc1ccc2[nH]c(=O)c(CN(CCCN(C)C)C(=O)Nc3ccccc3)cc2c1`, the z-score is -0.404.

As for `Cc1cc(Cl)c(S(=O)(=O)N2CCN(c3ccc(F)cc3)CC2)cc1OCC(=O)NC1CCCCC1`, the z-score stood at 0.177.

For the compound `CS(=O)(=O)N1CCC(C(=O)N2CCC(Cc3ccccc3)CC2)CC1`, the z-score is -0.152.

Regarding `CC(C)OC(=O)C(CC(=O)O)NCc1ccccc1` (configuration not stated), the z-score is -0.203.

On to `Cc1c(NC(=O)C2CCN(S(=O)(=O)c3ccc(Cl)cc3)CC2)c(=O)n(-c2ccccc2)n1C`, for which the z-score is -0.518.

In turn, `CCN(C(=O)c1ccc(NC(C)=O)cc1)c1ccccc1C` gave a z-score of 0.0987.

As to `Cc1cc(N)ccc1N1CCCC1`, the z-score was -0.246.

Regarding `CCOc1ccc(-n2nnnc2-c2nc3ccccc3s2)cc1`, the z-score is -0.319.

Regarding `CCOC(=O)c1cnc2c(C)cccc2c1NCCc1ccc(OC)c(OC)c1`, the z-score is -0.264.

With `COC(=O)c1c(NC(=O)C2CC(=O)NN2Cc2ccccc2)sc(C)c1C` (configuration not stated), the z-score was -0.118.

For `COc1ccc(/C=C/C(=O)NC(C)C)cc1Br`, the z-score was -0.339.

For the compound `Cc1cc(C)nc(NC2=NC3CCCCC3N2)n1` (configuration not stated), the z-score is -0.196.

On to `CCNCc1cc2cc(C)ccc2[nH]c1=O`, for which the z-score is -0.392.

Take `COc1ccc(C(=O)N2CCN(c3ncnc4c(-c5ccccc5)nsc34)CC2)cc1`: the z-score is -0.0928.

Turning to `Cc1cc(NC2C3CC4CC(C3)CC2C4)n2nnnc2n1` (configuration not stated), the z-score was -0.253.

As for `CCn1c(=NC(=O)CN2C(=O)CCC2=O)sc2c(OC)ccc(OC)c21`, the z-score is -0.0159.

As for `COc1ccc2[nH]c(C)c(CCN3C(=O)C4CC=CCC4C3=O)c2c1` (configuration not stated), the z-score is -0.193.

In the case of `O=C(NC1CCCc2ccccc21)c1cncc(Br)c1` (configuration not stated), the z-score came out at 0.164.

Turning to `NS(=O)(=O)c1cc(C(=O)N2CCc3ccccc32)c(Cl)cc1Cl`, the z-score worked out at 0.105.

Turning to `Cc1ccsc1/C=N/n1c(=S)[nH]nc(C)c1=O`, the z-score is -0.431.

As for `COc1ccc(C(=O)NC2CC(C)(C)Cc3occc32)cc1` (configuration not stated), the z-score is -0.102.

As to `N#Cc1c(Nc2ccccc2)sc(C(=O)c2ccccc2)c1N`, the z-score was -0.209.

The compound `O=C(Cc1c(C(=O)O)[nH]c2ccccc12)Nc1ccc2c(c1)OCO2` showed a z-score of 0.0702.

`O=C(c1c(F)c(F)c(F)c(F)c1F)N(Cc1ccccc1)Cc1ccccc1` returned a z-score of 0.0492.

For the compound `CCOC(=O)C(NCCCO)c1ccccc1` (configuration not stated), the z-score is -0.247.

Regarding `CCOc1ccc(C(=O)Nc2ccc3c(c2)OCO3)cc1OCC`, the z-score was -0.0217.

Take `COCC(=O)n1nc(-c2ccc(Cl)cc2)nc1NCc1ccc(F)cc1`: the z-score was -0.233.
